In PubChem BioAssay AID2675 (National Center for Advancing Translational Sciences (NCATS), 2010):
In all, about 280,000 compounds went through this assay and about 100 (0.036%) were called active. Inconclusive results, whose numbers are uncertain, are shown with a selection of clear calls. The call rests on the fitted dose curve; in most records, active means well fitted inhibition curve with a large enough effect in the signal ratio, with a control signal flat (not every such curve was filed as active); inconclusive means small, poorly fitted or top-dose-only effect, or effect the other way, or a change in a side signal; inactive means no such curve, though single readings can be large or run the other way; the % refers to the signal ratio. Potencies of inconclusive entries are doubtful fits and often do not repeat. “Side channel” marks fits to a control or component signal instead of the main read-out.

Biological target: Muscleblind-like protein 1 (Homo sapiens) (UniProt Q9NR56)
Assay: qHTS Assay for Inhibitors of MBNL1-poly(CUG) RNA binding
Conditions: TR-FRET MBNL1-His/biotin-(CUG)12 binding, 665/545 ratio; activity change, negative = inhibition: at 57.5 µM (top of the series)
Outline: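 MBNL1-His + Biotin-(CUG)12, cpd titration 92 nM–58 uM; Tb anti-His Ab 0.055 ng/ul, SA-XL665 5 nM (final); 60 min RT; ratiometric 665/545 nm, Ex 340 nm; normalized to buffer and full-complex controls.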
On the % scale 0 is the no-effect control and ±100 the full control effect; potency means the concentration at half of the fitted maximal effect; tags describe the fitted curve by direction and shape or compound fluorescence and quenching.

Sequence of UniProt Q9NR56 (Q9NR56 whole entry, looked up): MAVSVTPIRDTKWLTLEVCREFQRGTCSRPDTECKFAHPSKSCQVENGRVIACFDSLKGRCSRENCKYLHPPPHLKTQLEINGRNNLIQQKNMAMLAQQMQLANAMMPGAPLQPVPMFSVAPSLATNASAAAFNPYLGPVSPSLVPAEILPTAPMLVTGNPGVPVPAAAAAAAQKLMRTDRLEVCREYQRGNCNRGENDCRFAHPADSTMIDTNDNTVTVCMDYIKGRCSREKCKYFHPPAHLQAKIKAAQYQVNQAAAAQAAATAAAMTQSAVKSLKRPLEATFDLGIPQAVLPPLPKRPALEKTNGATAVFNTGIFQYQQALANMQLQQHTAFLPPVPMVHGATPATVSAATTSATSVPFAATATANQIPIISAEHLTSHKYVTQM

| SMILES | Potency | activity change, negative = inhibition |
| --- | --- | --- |
| O=C(/C=C/c1ccc([N+](=O)[O-])cc1)NCCSc1ccccc1 | inconclusive: 11.2 µM [quencher, side channel, partial curve] |  |
| O=S(=O)(c1ccc(S(=O)(=O)N2CCOCC2)cc1)N1CCCC1 | inconclusive: 20 µM [quencher, side channel, single point] |  |
| CCOC(=O)CCCCC(=O)c1[nH]c(=O)[nH]c1CSc1nnc2c3cc(Br)ccc3n(C)c2n1 | inconclusive: 10 µM [quencher, side channel, partial curve] |  |
| CCOc1ccc(/C=N/n2nnnc2N)cc1OCC | inconclusive: 28.2 µM [quencher, side channel, partial curve] |  |
| COc1ccc2nc(C)cc(Nc3ccc(N4CCOCC4)cc3)c2c1 | inconclusive: 15.8 µM [quencher, side channel, partial curve] |  |
| CCOc1ccc(/C=C/c2nc(C#N)c(NCCCN(C)C)o2)cc1 | inconclusive: 17.8 µM [quencher, side channel, partial curve] |  |
| C=CCNc1nc(-c2sc(NC(=O)CC)nc2C)cs1 | inconclusive: 11.2 µM [quencher, side channel, partial curve] |  |
| Cc1nc(Nc2ccccc2)sc1-c1ccccc1 |  | inactive: 15.6% |
| COc1ccc2c(c1)O/C(=C\c1ccccc1C)C2=O | inconclusive: 31.6 µM [quencher, side channel, single point] |  |
| CCC(C)NC(=O)Nc1ccc(Br)cc1 (stereo not drawn) |  | inactive: -6.91% |
| CCOc1ccccc1NC(=S)NCc1cccn1C |  | inactive: -9.38% |
| O=C(Cn1cc2c(n1)CCCCC2)N1CCc2ccccc2C1 | inconclusive: 5.01 µM [quencher, side channel, single point] |  |
| COc1ccc(CNC(=O)c2cc3c(=O)n4cccc(C)c4nc3n(CC3CCCO3)c2=N)cc1 (stereo not drawn) | inconclusive: 1.12 µM [quencher, side channel, full curve, poor fit] |  |
| COc1cc(NS(=O)(=O)c2ccc3c(c2)oc(=O)n3C)cc(OC)c1OC |  | inactive: 2.62% |
| CC[n+]1ccccc1/C=C/Nc1ccccc1 | inconclusive: 31.6 µM [quencher, side channel, single point] |  |
| O=c1sc2ccccc2n1CCOc1ccccc1 |  | inactive: 5.65% |
| CN/N=C(\Cc1nc2ccccc2[nH]1)c1ccc([N+](=O)[O-])cc1 | inconclusive: 14.1 µM [quencher, side channel, partial curve] |  |
| Cc1cccc(C(=O)n2c(=S)nc3ccccn32)c1 | inconclusive: 28.2 µM [fluorescent, side channel, single point] |  |
